Experimental data published in paper PMC4336329 (PLoS ONE, 2015).
Out of some 310,000 compounds screened, about 14,000 (4.5%) showed an effect of 50% or more. Effects have a minus sign here. This is one part of the list.

target: human ether-à-go-go-related gene (hERG) potassium channel (human, UniProt Q12809); test: primary screen, population patch clamp on CHO cells stably expressing hERG
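Further: peak tail current of the secondary pulse compared with the same well before compound.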

Sequence of human ether-à-go-go-related gene (hERG) potassium channel (Q12809 whole entry, looked up): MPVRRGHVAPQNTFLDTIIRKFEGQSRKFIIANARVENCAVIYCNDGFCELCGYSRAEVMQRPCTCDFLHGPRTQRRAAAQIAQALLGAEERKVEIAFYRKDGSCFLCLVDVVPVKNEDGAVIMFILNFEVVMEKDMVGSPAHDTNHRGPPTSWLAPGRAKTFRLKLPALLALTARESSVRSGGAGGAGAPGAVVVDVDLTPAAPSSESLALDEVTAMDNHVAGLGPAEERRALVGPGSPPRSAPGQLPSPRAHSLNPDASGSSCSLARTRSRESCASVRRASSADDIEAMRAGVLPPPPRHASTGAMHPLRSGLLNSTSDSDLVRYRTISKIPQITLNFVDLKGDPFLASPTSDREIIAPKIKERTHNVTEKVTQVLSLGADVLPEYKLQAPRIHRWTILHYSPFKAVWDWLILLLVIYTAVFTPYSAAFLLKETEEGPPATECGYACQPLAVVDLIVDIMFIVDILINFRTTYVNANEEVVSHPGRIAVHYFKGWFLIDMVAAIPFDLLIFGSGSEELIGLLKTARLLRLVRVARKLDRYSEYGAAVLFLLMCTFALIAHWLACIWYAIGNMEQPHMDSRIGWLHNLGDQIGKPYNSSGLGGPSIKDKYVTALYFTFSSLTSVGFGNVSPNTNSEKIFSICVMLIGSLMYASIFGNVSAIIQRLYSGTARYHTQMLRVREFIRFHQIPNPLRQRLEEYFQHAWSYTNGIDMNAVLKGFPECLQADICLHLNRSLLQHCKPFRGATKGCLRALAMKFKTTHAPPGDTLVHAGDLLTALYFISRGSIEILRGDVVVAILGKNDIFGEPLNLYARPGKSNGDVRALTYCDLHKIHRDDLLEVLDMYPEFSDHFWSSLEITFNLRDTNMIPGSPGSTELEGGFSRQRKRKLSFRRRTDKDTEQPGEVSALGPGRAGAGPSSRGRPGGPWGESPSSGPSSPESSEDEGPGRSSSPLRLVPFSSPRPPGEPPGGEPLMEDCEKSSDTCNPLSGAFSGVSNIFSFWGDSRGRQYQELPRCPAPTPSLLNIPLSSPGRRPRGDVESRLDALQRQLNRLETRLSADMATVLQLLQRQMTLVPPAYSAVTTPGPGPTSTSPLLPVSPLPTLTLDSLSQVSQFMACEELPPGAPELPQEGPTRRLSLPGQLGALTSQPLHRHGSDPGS

Q: With `Cn1c(=O)[nH]c(=O)c2c1nc(Br)n2Cc1ccccc1F` as the compound, how does the “hERG current change (%, negative = inhibition) at 10uM” value read?
A: 1.66%

Q: `S=C1NC2(CCCC2)N=C1c1ccccc1` was tested. Which “hERG current change (%, negative = inhibition) at 10uM” value did it give?
A: 9.99%

Q: Which “hERG current change (%, negative = inhibition) at 10uM” value does the source give for `COc1cc(/C=C/C(=O)Nc2ccc(N3CCCCC3)c(S(=O)(=O)Nc3ccccc3Cl)c2)cc(OC)c1OC` here?
A: 9.86%

Q: How did the “hERG current change (%, negative = inhibition) at 10uM” value turn out when `O=C(O)C(CO)(c1ccccc1)c1ccccc1` was run?
A: 5.69%

Q: With `CCOC(=O)CN1C(c2ccc(O)cc2)Nc2ccc(Br)cc2C1c1ccccc1` (stereo not drawn) as the compound, how does the “hERG current change (%, negative = inhibition) at 10uM” value read?
A: 2.1%

Q: Which “hERG current change (%, negative = inhibition) at 10uM” value does the source give for `CCCOc1ccccc1C1NC(=O)NC(C)=C1C(=O)OCCOCC` (stereo not drawn) here?
A: 7.8%

Q: With `Cc1ccc(S(=O)(=O)c2nc(-c3ccco3)oc2SCC(=O)NCC2CCCO2)cc1` (stereo not drawn) as the compound, how does the “hERG current change (%, negative = inhibition) at 10uM” value read?
A: -1.02%

Q: Which “hERG current change (%, negative = inhibition) at 10uM” value does the source give for `CC(C)Oc1ccc(S(=O)(=O)N2CCCCC2)cc1NC(=O)CN1C(=O)NC(C)(c2ccccc2)C1=O` (stereo not drawn) here?
A: -0.319%

Q: With `CC(=O)c1cccc(NC(=O)CSc2nnc(C(C)N(C)C)n2-c2ccc(F)cc2)c1` (stereo not drawn) as the compound, how does the “hERG current change (%, negative = inhibition) at 10uM” value read?
A: -8.59%

Q: Which “hERG current change (%, negative = inhibition) at 10uM” value does the source give for `CCOC(=O)/C(O)=C(\C#N)c1nc2ccccc2[nH]1` here?
A: 17.7%

Q: With `c1ccc(-n2nnnc2SCc2ccccn2)cc1` as the compound, how does the “hERG current change (%, negative = inhibition) at 10uM” value read?
A: 7.26%

Q: With `CS(=O)(=O)c1nc(S(=O)(=O)c2ccc(Cl)cc2)c(N2CCOCC2)s1` as the compound, how does the “hERG current change (%, negative = inhibition) at 10uM” value read?
A: 12.1%

Q: For `Cc1ccc(C(=O)NCCc2nnc3c(C(F)(F)F)cc(Cl)cn23)o1`, which “hERG current change (%, negative = inhibition) at 10uM” value is on record?
A: 6.52%

Q: For `O=C1Nc2cc(C(=O)N3CCC4(CC3)OCCO4)ccc2S/C1=C\c1ccccc1`, which “hERG current change (%, negative = inhibition) at 10uM” value is on record?
A: 36.4%

Q: `O=C(c1ccc(CS(=O)c2ccc(F)cc2)o1)N1CCN(C2CCCCC2)CC1` (stereo not drawn) was tested. Which “hERG current change (%, negative = inhibition) at 10uM” value did it give?
A: -11.9%

Q: Which “hERG current change (%, negative = inhibition) at 10uM” value does the source give for `CCOC(=O)C1=C(C)NC(C)=C(C(=O)OCC)C1C(=O)OCC(N)=O` here?
A: 18.5%

Q: Which “hERG current change (%, negative = inhibition) at 10uM” value does the source give for `COc1ccc(-c2n[nH]c(=S)n2Cc2ccco2)cc1` here?
A: -3.73%

Q: For `O=C1NC2=C(C(=O)c3ccccc32)C(c2ccccc2)N1` (stereo not drawn), which “hERG current change (%, negative = inhibition) at 10uM” value is on record?
A: -7.72%

Q: Which “hERG current change (%, negative = inhibition) at 10uM” value does the source give for `O=C(NCC(O)c1ccccc1)c1cccs1` (stereo not drawn) here?
A: -32.2%

Q: How did the “hERG current change (%, negative = inhibition) at 10uM” value turn out when `CCOC(=O)[C@H](CCc1ccccc1)N[C@@H](C)C(=O)N1C(C(=O)O)C[C@@H]2CCC[C@@H]21` (stereo partly drawn) was run?
A: 11.1%

Q: For `Cc1ccc(C(C2C(=O)CC(C)(C)CC2=O)C2C(=O)CC(C)(C)CC2=O)s1`, which “hERG current change (%, negative = inhibition) at 10uM” value is on record?
A: 14.3%

Q: `CCc1cccc(NC(=O)CCCN2C(=O)NC(C)(C)C2=O)c1` was tested. Which “hERG current change (%, negative = inhibition) at 10uM” value did it give?
A: 13.4%

Q: With `COc1ccc(Nc2oc(COc3cccc(C)c3)nc2C#N)cc1` as the compound, how does the “hERG current change (%, negative = inhibition) at 10uM” value read?
A: 14%

Q: For `Cc1cccc(N2CCN(S(=O)(=O)c3ccc4c(c3)CCN4C(=O)CCC(=O)O)CC2C)c1` (stereo not drawn), which “hERG current change (%, negative = inhibition) at 10uM” value is on record?
A: 17.1%
